Assay results: ChEMBL document CHEMBL4888484, “Replenishing the malaria drug discovery pipeline: Screening and hit evaluation of the MMV Hit Generation Library 1 (HGL1) against asexual blood stage Plasmodium falciparum ,using a nano luciferase reporter read-out” (2022)
Screen size: about 150,000 compounds; about 540 (0.36%) showed an effect of 50% or more. This is one part of the list.

Tested on: Plasmodium falciparum
Assay: Primary screen in NF54 nanoGlo assay, in single point, at 2uM, 72h; a lower Z score goes with more inhibition
Type: functional, Erythrocyte
Conditions: timepoint 72 hour

Structure (SMILES) | % Inhibition | Z score
O=C(NC1CCCCCC1)N[C@H]1CCS(=O)(=O)C1 | -10% | 1.77
O=C(CN1CCCNC1=O)Nc1nc2cc(F)c(F)cc2s1 | 0% | -0.06
C[C@H](Nc1ccc(C#N)nn1)C1CCN(CC(F)(F)F)CC1 | 12% | -1.6
CN(Cc1ccccc1)[C@H]1CCCN(Cc2ccc3nonc3c2)C1 | 1% | -0.1
CN(CC[C@H]1CCCN1C)Cc1cnc2ccccc2c1 | 0% | 0.06
COc1cc2c(cc1OC)CN(C(=O)c1ccc(OCc3cccnc3)cc1)CC2 | 11% | -1.44
O=C(NCc1ccc2c(c1)OCO2)[C@@H]1COC2(CCN(C(=O)c3ccccc3F)CC2)N1C(=O)c1ccccc1 | -3% | 0.44
Cc1nn(Cc2cc(-c3ccco3)on2)c(=O)c(C#N)c1C | -15% | 1.39
O=C(Cc1cccs1)N(CCn1ccc(C(F)(F)F)n1)C1CCCC1 | -1% | 0.2
O=C(COc1cccc(Cl)c1)NCC1(N2CCOCC2)CCCCC1 | -19% | 1.71
COc1cc(Br)ccc1CNC(=O)N1CC(CO)C1 | -16% | 2.11
Cc1ccc(C(=O)N2CCC(N3CCC[C@H](C(=O)N4CCCC4)C3)CC2)cc1 | -12% | 1.21
Cc1nn(C)c(C)c1-c1ccnc(N2CCC[C@H]2c2nc(-c3cccnc3)no2)n1 | -9% | 1.38
Fc1ccccc1OCCNCc1cnc(N2CCOCC2)nc1 | -8% | 1.41
CN(Cc1cnn(C)c1)c1ccncc1Cl | -5% | 0.69
Cc1cc(N2CC[C@@]3(CCCN(CCc4ccccc4)C3)C2)nc(N)n1 | 16% | -2.54
CCCn1cc(C(=O)NCCc2cncn2C)cn1 | -11% | 1.24
OC[C@H]1CCCCN1C1CCCCCC1 | 2% | -0.38
Cc1nc(NC2CC(=O)N3CCCCC23)nc(N(C)C)n1 (stereo not given) | -43% | 5.01
CCc1ccc(S(=O)(=O)N2CCC[C@H]2c2cc(CC)no2)cc1 | -13% | 1.81
Cc1cnc(CN(C)CCC2(O)CCCC2)cn1 | 3% | -0.58
Cc1sc(C(=O)N2CCO[C@H](C(N)=O)C2)cc1-c1ccc(F)cc1 | -13% | 1.26

Structure (SMILES) | % Inhibition | Z score
Cc1nnc(CN2CC3(C)CN(Cc4ccccc4)CC3(C)C2)n1C (stereo not given) | -6% | 0.78
CCc1ccccc1NC(=O)CN1CCCN(c2nc(C)ns2)CC1 | -9% | 1.07
c1cc2ccc(-c3nc(C4CCOCC4)n[nH]3)cc2[nH]1 | -6% | 0.96
Cc1cc(C(=O)N2CCC(C)(c3noc(-c4ccccn4)n3)CC2)c(C)n1Cc1ccc(F)cc1 | -15% | 1.96
O=C(NC[C@H]1CCCN(c2ccncc2)C1)c1ccccc1F | 9% | -1.14
CCOc1ncccc1NC(=O)C1=NN(c2ccccc2)C(=O)CN1 | -10% | 2.04
COc1ccc([C@H](C)N(C)CCn2cnnc2C)c(OC)c1 | -15% | 2.19
Cn1cc(CNC[C@H]2Cn3c(-c4ccc(F)cc4)cnc3CO2)cn1 | 30% | -3.38
CN(C)c1ccc(Nc2ncnc3c(F)cccc23)cn1 | -8% | 0.97
O=C(c1ncccc1O)N1CCC[C@H]1c1nc(-c2ccccc2)no1 | 0% | 0.03
Cc1c(C#N)cccc1NC(=O)N1CCC[C@H](OCC2CC2)C1 | -7% | 0.75
Cc1cc(C)cc([C@@H](NC(=O)NCC2(CO)CC2)c2cccnc2)c1 | -2% | 0.21
CC1(C)CC[C@H](NC(=O)NC2CC2)c2ccccc21 | -6% | 0.65
Clc1ccc(OCCn2cc(-c3cnn(Cc4ccccc4)c3)cn2)cc1 | -10% | 1.99
Cc1nc(N2CCC(Cn3nc(C4CC4)ccc3=O)CC2)c2cnn(C)c2n1 | -18% | 2.58
COc1ccc(C(=O)NC2CC3CCC(C2)S3(=O)=O)cn1 (stereo not given) | -16% | 1.71
Cc1nccn1-c1ccc(NC(=O)C2CCN(S(=O)(=O)c3ccc4c(c3)CCC4)CC2)cn1 | 18% | -3.63
CCC(=O)N1CCC(NCc2csc3ccccc23)C(CC)C1 (stereo not given) | -13% | 1.94
CCOc1ccc(CN2CCC[C@H](CS(C)(=O)=O)C2)cn1 | -7% | 1.41
O=C(Cn1c2c(c(=O)n3ncnc13)CCC2)Nc1ccccc1 | -3% | 0.42
CCC(c1ccc(F)cc1)c1nnc(C2COc3ccccc3C2)o1 (stereo not given) | -6% | 1.02
OC[C@H](Cc1c[nH]cn1)NCc1cc2ccc(Cl)cc2nc1OCCOc1ccccc1 | 8% | -1.41

Structure (SMILES) | % Inhibition | Z score
Cc1ccc2nnc(CNS(=O)(=O)CCC3CCOCC3)n2c1 | -10% | 0.84
C[C@@H](C(=O)NCc1ccc2c(c1)OCO2)N(C)CCOc1ccc(Br)cc1 | 1% | -0.15
c1ccc(CCC[C@H]2CN(Cc3cccnc3)CCO2)cc1 | -3% | 0.56
Cc1nn(-c2ccc(F)cc2)c2[nH]nc(NC(=O)c3ccon3)c12 | -7% | 0.74
Cc1nc(OCC(=O)NCc2cccc(Cl)c2)c2c(-c3ccc(C)c(C)c3)noc2n1 | 3% | -0.45
CNC(=O)c1cccc(-n2cc(O)c(-c3nc(-c4ccccc4)cs3)c2N)c1 | -9% | 1.21
CNC(=O)c1cc(C(=O)CN2CC(C)OC(C)C2)cn1C (stereo not given) | -6% | 0.64
O=C(c1cc(C2CC2)[nH]c(=O)c1)N1CCC[C@@]2(C1)OCc1ccccc12 | -3% | 0.4
CC(c1cccc(O)c1)N(C)S(=O)(=O)N(C)C(C)C1CC1 (stereo not given) | -17% | 2.7
O=C1CO[C@H]2CN(Cc3c[nH]c4ccccc34)C[C@H]2N1Cc1cccnc1 | -10% | 1.6
CCC[C@H](C)c1cc(NS(=O)(=O)c2cnn(CC)c2)[nH]n1 | 38% | -0.96
Cc1c(Cl)cccc1C(=O)N[C@@H](CC1CC1)C(=O)O | -5% | 0.59
CN(C)C(=O)CCc1ccc(CC2CCN(Cc3ccccn3)CC2)cc1 | -12% | 1.54
CCC(C)(C)C(=O)Nc1nnc(C(C)C)s1 | -9% | 1.68
c1cc(CNC2CCN(c3ccc(-c4cscn4)cc3)CC2)cs1 | -6% | 1.07
CN(C(=O)Cn1cc(Br)cn1)[C@H]1CCO[C@@H]1c1cccnc1 | -10% | 0.83
CC(C)(C)C(=O)NC[C@@](O)(c1ccco1)C1CC1 | -10% | 1.66
Cc1c(-c2ccc(Cl)cc2)nnn1CCC(N)=O | -10% | 1.37
O=C(NCc1ccc(Cl)cc1)c1cncn1-c1cccc(-c2cccc(OC(F)(F)F)c2)c1 | -1% | 0.2
Cc1cc(C)c(S(=O)(=O)NC2CCOC(c3nccn3C)C2)s1 (stereo not given) | 3% | -0.54
O=C(N[C@@H](Cc1ccccc1)C(=O)Nc1cccnc1)OCc1ccccc1 | 5% | -0.58
Nc1nc2c(c(N3Cc4ccccc4C3)n1)CCNC2 | -1% | 0.13

Structure (SMILES) | % Inhibition | Z score
CC(C)(C)c1nn(Cc2noc(C3CC3)n2)c(O)c1CCC#N | -7% | 1.16
OC[C@]1(c2ccccc2)CCN(Cc2nnc(-c3ccccc3)o2)C1 | 4% | -0.36
CC1CCN(C(=O)C(=O)N2CC(C)(C)[C@@H]2C2CC2)CC1 | -9% | 1.68
FC(F)(F)C1CCN(c2cnccn2)CC1 | 1% | -0.24
CC(C)[C@H](C)NC1CCN(S(=O)(=O)NCC(F)(F)F)CC1 | -4% | 0.83
Cc1ccccc1NC(=O)c1cnn2c1NC(C(=O)O)=C[C@H]2c1ccc(C(C)C)cc1 | -3% | 0.53
CCC(CC)(CO)CN(C)C(=O)c1nccnc1O | -7% | 1.33
O=C(Nc1ccc(Cl)c(Cl)c1)N1CCCCCC1=Nc1ccc(Br)cc1 | 32% | -3.66
COC(C)c1noc(CNC2CC(C)CCC2C(C)C)n1 (stereo not given) | -6% | 0.55
Cc1nn(-c2ccccc2)c(Oc2ccc(F)cc2)c1CN(CC1CC1)C[C@H](O)c1ccccc1 | 1% | -0.2
CCc1cnc(N2CCn3nc([C@H](O)c4nccn4C)cc3C2)nc1 | 14% | -1.76
Cc1ccc(C(=O)CCn2ccnc2)cc1 | 10% | -1.01
C=CCNC(=O)CN[C@@H](C)c1cccc(F)c1F | 3% | -0.43
COC[C@H](NC(=O)c1cccc(-c2ccco2)c1)c1ccccn1 | -4% | 0.83
CC[C@@](C)(C(=O)NC1CCCC1)N(C(=O)c1ccc2c(c1)OCO2)c1c(C)n(C)n(-c2ccccc2)c1=O | -7% | 1.15
C#CCCC1(CCC(=O)N2CCCC2C2CCCOC2)N=N1 (stereo not given) | -16% | 2.05
CC(NCCc1ccccc1)C(C)C(c1ccccc1)c1ccccc1 (stereo not given) | -7% | 1.2
COc1ccccc1-c1n[nH]cc1CN1CC(=O)NCC12CCCC2 | 32% | -4.37
CC(C)(CC(=O)O)CC(=O)N[C@H]1CO[C@H]2[C@@H]1OC[C@@H]2Nc1nccc(C(C)(C)C)n1 | 6% | -0.69
